The list shows a part of the results. Viral Rep nickase domains cut single-stranded DNA in vitro (1 h at 37 °C, 3 µM enzyme); the outer parts of the 90-letter strands are left off. The score is log2 (uncut reads / reads without enzyme); more negative means more cut, near 0 not cut, and no call is made. Reads are scaled to the total; where an enzyme cuts many sequences, the uncut ones exceed 0.
Key:
Test in all cases: uncleaved DNA left, log2 of reads against the no-enzyme library (log2 ratio); higher = less cleavage (more negative = more Rep cleavage of the k-mer); sequences stand for … in CTCGTCCG…ACCGGAGA
[1] = tested on: T1, Rep nickase domain of Muscovy duck circovirus
T1 sequence (residues 1-111, tag not shown): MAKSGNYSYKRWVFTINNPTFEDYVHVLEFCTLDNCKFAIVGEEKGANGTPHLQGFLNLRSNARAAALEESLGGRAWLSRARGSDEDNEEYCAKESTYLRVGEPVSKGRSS
Experimental: (§1)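 A pool of 90-nt single-stranded DNAs with seven random bases just before the constant AC of the nick site (name = the seven bases) was cut by 3 µM recombinant His6-SUMO-tagged Rep nickase domain (300 nM DNA, 50 mM HEPES pH 8.0, 50 mM NaCl, 1 mM MnCl2, 1 h, 37 °C, three replicates). Uncut DNA was amplified and sequenced.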

[2] = tested on: T2, Rep nickase domain of banana bunchy top virus
T2 sequence (residues 1-94, tag not shown): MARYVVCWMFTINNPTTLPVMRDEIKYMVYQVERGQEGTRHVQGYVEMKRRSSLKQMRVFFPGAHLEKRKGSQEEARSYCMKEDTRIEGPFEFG
Experimental: as §1

[3] = tested on: T3, Rep nickase domain of cabbage leaf curl virus
T3 sequence (residues 1-116, tag not shown): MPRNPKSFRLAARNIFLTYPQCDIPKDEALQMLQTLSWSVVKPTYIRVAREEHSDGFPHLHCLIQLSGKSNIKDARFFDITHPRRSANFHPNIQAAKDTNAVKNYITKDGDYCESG
Experimental: as §1

[4] = tested on: T4, Rep nickase domain of chickpea chlorotic dwarf virus
T4 sequence (residues 1-124, tag not shown): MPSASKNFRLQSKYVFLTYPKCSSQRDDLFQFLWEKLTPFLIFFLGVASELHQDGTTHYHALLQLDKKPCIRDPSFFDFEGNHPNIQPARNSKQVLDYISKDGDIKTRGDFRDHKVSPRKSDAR
Experimental: as §1

[5] = tested on: T5, Rep nickase domain of faba bean necrotic yellows virus
T5 sequence (residues 1-98, tag not shown): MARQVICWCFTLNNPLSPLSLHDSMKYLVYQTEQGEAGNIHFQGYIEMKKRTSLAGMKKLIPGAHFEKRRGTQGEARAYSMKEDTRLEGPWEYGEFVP
Experimental: as §1

[6] = tested on: T6, Rep nickase domain of maize striate mosaic virus
T6 sequence (residues 1-117, tag not shown): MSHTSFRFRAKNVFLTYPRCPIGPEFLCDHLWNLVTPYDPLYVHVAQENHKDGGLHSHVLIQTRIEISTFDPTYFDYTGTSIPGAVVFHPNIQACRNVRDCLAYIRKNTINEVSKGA
Experimental: as §1

[7] = tested on: T7, Rep nickase domain of porcine circovirus 2
T7 sequence (residues 2-116, tag not shown): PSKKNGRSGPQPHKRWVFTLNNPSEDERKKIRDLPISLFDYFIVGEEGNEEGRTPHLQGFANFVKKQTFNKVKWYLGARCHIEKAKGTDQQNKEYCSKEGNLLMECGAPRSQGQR
Experimental: as §1

[8] = tested on: T8, Rep nickase domain of tomato golden mosaic virus
T8 sequence (residues 1-124, tag not shown): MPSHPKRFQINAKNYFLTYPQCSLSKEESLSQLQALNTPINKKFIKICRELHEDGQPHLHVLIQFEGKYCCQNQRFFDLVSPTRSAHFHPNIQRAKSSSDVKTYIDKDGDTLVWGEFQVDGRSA
Experimental: as §1

[9] = tested on: T9, Rep nickase domain of tomato yellow leaf curl virus
T9 sequence (residues 1-136, tag not shown): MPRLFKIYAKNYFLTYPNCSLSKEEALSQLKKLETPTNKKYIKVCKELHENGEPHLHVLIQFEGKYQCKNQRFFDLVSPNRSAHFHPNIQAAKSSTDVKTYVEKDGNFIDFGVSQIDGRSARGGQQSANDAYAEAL
Experimental: as §1

[10] = tested on: T10, Rep nickase domain of wheat dwarf virus
T10 sequence (residues 1-137, tag not shown): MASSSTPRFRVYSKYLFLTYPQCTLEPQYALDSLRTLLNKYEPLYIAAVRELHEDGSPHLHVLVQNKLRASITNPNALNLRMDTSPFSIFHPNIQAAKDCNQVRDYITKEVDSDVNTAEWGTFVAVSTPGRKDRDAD
Experimental: as §1

| Sequence | uncleaved DNA left (log2) [1] | uncleaved DNA left (log2) [2] | uncleaved DNA left (log2) [3] | uncleaved DNA left (log2) [4] | uncleaved DNA left (log2) [5] | uncleaved DNA left (log2) [6] | uncleaved DNA left (log2) [7] | uncleaved DNA left (log2) [8] | uncleaved DNA left (log2) [9] | uncleaved DNA left (log2) [10] |
| --- | --- | --- | --- | --- | --- | --- | --- | --- | --- | --- |
| GTGACAA | 0.0911 | 0.192 | 0.73 | 1.81 | 0.00552 | 2.22 | 0.271 | 0.191 | 0.12 | 0.228 |
| TCTCGCA | 0.0111 | 0.0871 | -0.372 | -0.779 | 0.00932 | -0.987 | 0.0212 | 0.0336 | 0.0705 | -0.0676 |
| AGGGACA | 0.168 | 0.248 | 1.02 | 2.16 | 0.115 | 2.33 | 0.283 | 0.178 | 0.199 | 0.23 |
| TATGCTA | -0.0521 | 0.0469 | -0.134 | -1.77 | 0.0073 | -0.964 | -0.0785 | 0.0324 | 0.0731 | 0.0418 |
| GTAGAGG | -0.029 | -0.0407 | 0.366 | 1.05 | 0.00872 | 1.15 | -0.059 | -0.0258 | -0.0308 | 0.049 |
| CGCCCCA | -0.144 | -0.0948 | 0.126 | -0.51 | -0.13 | -0.109 | -0.318 | -0.0979 | -0.0542 | -0.079 |
| GTGTTGA | 0.0402 | 0.0201 | 0.351 | 0.922 | 0.178 | 1.67 | 0.104 | 0.173 | 0.125 | 0.167 |
| GTGCATT | 0.0169 | -0.0789 | 0.597 | 1.49 | -0.146 | 2.06 | 0.135 | -0.0791 | 0.0721 | 0.17 |
| AGTCTAA | 0.0535 | 0.022 | 0.0794 | 0.0722 | -0.0332 | 0.0423 | -1.45 | 0.0979 | 0.0479 | 0.0661 |
| TACGGAT | 0.169 | 0.0714 | 0.287 | 1.52 | -0.0105 | 1.88 | 0.238 | 0.0717 | 0.0363 | 0.11 |
| ACAGTAT | -0.163 | -0.165 | -0.15 | -1.01 | -0.0954 | -0.637 | -0.0584 | -0.117 | -0.155 | -0.217 |
| TGACTCA | 0.0878 | 0.0588 | 0.258 | 0.117 | 0.0275 | 0.739 | 0.0758 | 0.000935 | 0.0564 | 0.136 |
| TGGCCAT | 0.0525 | 0.00826 | 0.701 | 1.8 | -0.0132 | 2.1 | 0.0711 | -0.113 | -0.0444 | -0.00573 |
| GATCACC | 0.0368 | 0.108 | 0.264 | 0.442 | -0.0182 | 0.757 | 0.0702 | 0.0029 | 0.175 | 0.198 |
| CGAGGAC | 0.115 | 0.178 | 0.54 | 1.37 | 0.197 | 1.37 | 0.325 | 0.141 | 0.0642 | 0.0764 |
| TAGTACG | -0.0707 | -0.0266 | -0.929 | -0.773 | 0.0146 | -1.13 | -0.509 | 0.0124 | 0.00951 | -0.139 |
| CCACAAC | 0.0228 | 0.0818 | -0.0469 | -1.91 | 0.136 | -0.618 | 0.134 | 0.0496 | -0.0654 | -0.034 |
| GGTTCTA | -0.109 | 0.0136 | 0.355 | 0.962 | -0.131 | 1.73 | -0.0361 | -0.049 | 0.00594 | 0.0612 |
| CAGAGAC | 0.0826 | 0.0135 | 0.348 | 0.858 | -0.0719 | 0.519 | 0.0438 | 0.0402 | -0.0472 | 0.0365 |
| TCCCCTC | -0.0215 | -0.00615 | 0.158 | -0.224 | -0.016 | -0.284 | -0.268 | -0.0027 | -0.0151 | 0.0738 |
| TGCTAAT | -2.03 | -0.0553 | -0.0602 | -0.674 | -0.0333 | -0.187 | -3.4 | -0.00369 | 0.117 | -0.029 |
| TATGCTC | -0.0974 | -0.192 | -0.456 | -1.64 | -0.216 | -1.12 | -0.18 | -0.229 | -0.0819 | -0.157 |
| CCATTTG | 0.121 | -0.0804 | -0.927 | -0.161 | 0.0869 | -0.916 | 0.261 | 0.0734 | 0.122 | 0.0257 |
| GCCCTGG | 0.0876 | 0.145 | 0.158 | 0.631 | -0.00868 | 0.144 | 0.156 | 0.153 | -0.112 | 0.0151 |
| AGAGACG | 0.138 | 0.0863 | -0.021 | 0.617 | -0.0294 | 1.26 | 0.177 | 0.148 | -0.0155 | 0.0966 |
| TCAGAAC | 0.0462 | 0.0838 | 0.23 | -0.209 | 0.131 | -0.26 | 0.142 | 0.00521 | -0.0179 | 0.0245 |
| CTTCTCA | -0.136 | -0.0462 | -0.23 | -1.07 | -0.176 | -0.695 | -0.2 | -0.22 | -0.0454 | -0.0293 |
| CCGGCTG | -0.0669 | -0.000642 | 0.138 | 0.633 | -0.105 | 1.52 | 0.0555 | 0.0929 | -0.21 | -0.0618 |
| ATATGGG | 0.0464 | -0.00523 | -0.552 | -0.516 | 0.0889 | -1.01 | 0.247 | -0.00478 | 0.0286 | -0.0992 |
| GGATAGG | 0.106 | -0.0267 | 0.507 | 1.24 | 0.127 | 1.34 | 0.139 | 0.0793 | -0.0584 | 0.102 |
